{"source": "the supplement of paper PMC8728848", "assay_in_all_cases": "glycan array binding signal (z-score within array); higher = stronger binding", "details_in_all_cases": "glycan notation: IUPAC condensed, linker removed", "key": {"[1]": {"target": "Fuc(a1-2)Gal", "summary_of_the_method": "(§1)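 From the Consortium for Functional Glycomics database, 3228 arrays were curated, keeping only those whose protein sequence was available. Binding is given as a within-array Z-score averaged across arrays sharing a protein sequence and across linkers. Negative Z-scores can be read as non-binding.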"}, "[2]": {"target": "Fuc(a1-2)Gal(b1-3)GalNAc", "summary_of_the_method": "as §1"}, "[3]": {"target": "Fuc(a1-2)Gal(b1-3)GalNAc(a1-3)[Fuc(a1-2)]Gal(b1-4)Glc", "summary_of_the_method": "as §1"}, "[4]": {"target": "Fuc(a1-2)Gal(b1-3)GalNAc(a1-3)[Fuc(a1-2)]Gal(b1-4)GlcNAc", "summary_of_the_method": "as §1"}, "[5]": {"target": "Fuc(a1-2)Gal(b1-3)GalNAc(b1-3)Gal", "summary_of_the_method": "as §1"}, "[6]": {"target": "Fuc(a1-2)Gal(b1-3)GalNAc(b1-3)Gal(a1-4)Gal(b1-4)Glc", "summary_of_the_method": "as §1"}, "[7]": {"target": "Fuc(a1-2)Gal(b1-3)GalNAc(b1-4)[Neu5Ac(a2-3)]Gal(b1-4)Glc", "summary_of_the_method": "as §1"}, "[8]": {"target": "Fuc(a1-2)Gal(b1-3)GlcNAc", "summary_of_the_method": "as §1"}, "[9]": {"target": "Fuc(a1-2)Gal(b1-3)GlcNAc(b1-2)Man(a1-3)[Fuc(a1-2)Gal(b1-3)GlcNAc(b1-2)Man(a1-6)]Man(b1-4)GlcNAc(b1-4)GlcNAc", "summary_of_the_method": "as §1"}, "[10]": {"target": "Fuc(a1-2)Gal(b1-3)GlcNAc(b1-2)Man(a1-3)[Fuc(a1-2)Gal(b1-3)GlcNAc(b1-2)Man(a1-6)]Man(b1-4)GlcNAc(b1-4)[Fuc(a1-6)]GlcNAc", "summary_of_the_method": "as §1"}, "[11]": {"target": "Fuc(a1-2)Gal(b1-3)GlcNAc(b1-3)Gal(b1-4)Glc", "summary_of_the_method": "as §1"}, "[12]": {"target": "Fuc(a1-2)Gal(b1-3)GlcNAc(b1-3)GalNAc", "summary_of_the_method": "as §1"}, "[13]": {"target": "Fuc(a1-2)Gal(b1-3)GlcNAc(b1-3)[Fuc(a1-3)[Gal(b1-4)]GlcNAc(b1-6)]Gal(b1-4)Glc", "summary_of_the_method": "as §1"}, "[14]": {"target": "Fuc(a1-2)Gal(b1-3)GlcNAc(b1-3)[Gal(b1-4)GlcNAc(b1-6)]Gal(b1-4)Glc", "summary_of_the_method": "as §1"}, "[15]": {"target": "Fuc(a1-2)Gal(b1-3)GlcNAc(b1-3)[Neu5Ac(a2-6)Gal(b1-4)GlcNAc(b1-6)]Gal(b1-4)Glc", "summary_of_the_method": "as §1"}, "[16]": {"target": "Fuc(a1-2)Gal(b1-3)[Fuc(a1-4)]GlcNAc", "summary_of_the_method": "as §1"}, "[17]": {"target": "Fuc(a1-2)Gal(b1-3)[Fuc(a1-4)]GlcNAc(b1-2)Man(a1-3)[Fuc(a1-2)Gal(b1-3)[Fuc(a1-4)]GlcNAc(b1-2)Man(a1-6)]Man(b1-4)GlcNAc(b1-4)GlcNAc", "summary_of_the_method": "as §1"}, "[18]": {"target": "Fuc(a1-2)Gal(b1-3)[Fuc(a1-4)]GlcNAc(b1-3)[Fuc(a1-3)[Gal(b1-4)]GlcNAc(b1-6)]Gal(b1-4)Glc", "summary_of_the_method": "as §1"}, "[19]": {"target": "Fuc(a1-2)Gal(b1-3)[Fuc(a1-4)]GlcNAc(b1-3)[Gal(b1-4)GlcNAc(b1-6)]Gal(b1-4)Glc", "summary_of_the_method": "as §1"}, "[20]": {"target": "Fuc(a1-2)Gal(b1-4)Glc", "summary_of_the_method": "as §1"}, "[21]": {"target": "Fuc(a1-2)Gal(b1-4)Glc6S", "summary_of_the_method": "as §1"}, "[22]": {"target": "Fuc(a1-2)Gal(b1-4)GlcNAc", "summary_of_the_method": "as §1"}, "[23]": {"target": "Fuc(a1-2)Gal(b1-4)GlcNAc(b1-2)Man(a1-3)[Fuc(a1-2)Gal(b1-4)GlcNAc(b1-2)Man(a1-6)]Man(b1-4)GlcNAc(b1-4)GlcNAc", "summary_of_the_method": "as §1"}, "[24]": {"target": "Fuc(a1-2)Gal(b1-4)GlcNAc(b1-2)Man(a1-3)[Fuc(a1-2)Gal(b1-4)GlcNAc(b1-2)Man(a1-6)]Man(b1-4)GlcNAc(b1-4)[Fuc(a1-6)]GlcNAc", "summary_of_the_method": "as §1"}, "[25]": {"target": "Fuc(a1-2)Gal(b1-4)GlcNAc(b1-2)[Fuc(a1-2)Gal(b1-4)GlcNAc(b1-4)]Man(a1-3)[Fuc(a1-2)Gal(b1-4)GlcNAc(b1-2)Man(a1-6)]Man(b1-4)GlcNAc(b1-4)GlcNAc", "summary_of_the_method": "as §1"}, "[26]": {"target": "Fuc(a1-2)Gal(b1-4)GlcNAc(b1-3)Gal(b1-4)GlcNAc", "summary_of_the_method": "as §1"}, "[27]": {"target": "Fuc(a1-2)Gal(b1-4)GlcNAc(b1-3)Gal(b1-4)GlcNAc(b1-3)Gal(b1-4)GlcNAc", "summary_of_the_method": "as §1"}, "[28]": {"target": "Fuc(a1-2)Gal(b1-4)GlcNAc(b1-3)GalNAc", "summary_of_the_method": "as §1"}, "[29]": {"target": "Fuc(a1-2)Gal(b1-4)GlcNAc(b1-3)[Fuc(a1-2)Gal(b1-4)GlcNAc(b1-6)]GalNAc", "summary_of_the_method": "as §1"}, "[30]": {"target": "Fuc(a1-2)Gal(b1-4)GlcNAc6S", "summary_of_the_method": "as §1"}}, "note": "Some of the results follow.", "data": [{"binder": "NanI (Corynebacterium diphtheriae), C6JSW7 (protein) MTNTLESNPMTTTTGALTITFATTCDGPLAHIPHHLDLNIIHGRIQGTTAHRRIDAEDPDGLDDGLPHHLCLSVDTTGTHLFIDGYEAFSTTQTEWFDTSELTLNPHGDLTIIDHQILNHAPTPRQARNLAPAAEPLVWFAGSHLSTRDTQRISHLTHGSLRLLMKTRGTGQGGVAFQAHTINGDLTLEIIDGTLIFSVRCHDEDYVRITAPGRWDDGQIYDVVIVCGRGATDIYVDGQQLIHSPGAAFFNDLSGELSVHIGTAASGVRLFGEVQSGMIYPHVFNHHQVQRLATVEPIATQALFDCLLDGAQSYRIPSLITTDSGVIIAGADKRVSIANDAPNDIDFVLRRSVDGGRTWQPPRTILQLPDTACVTDSVLLQDHTTGRIFAFLDQFPAGIGQPNAAFGTGFDADGNRIGHFADGSTCTMPREVDQLEASFFSDPHTAPPGIVFQHPSCHLWMLTSDDDGLTWSTPRDLTPDVKEEWMRFCGTSPGNGIQLQRDTHAGRLLIPMYYTKGDQFFAAALYSDDHGDTWHRGESPDLEMYESTLVEASDGSVLLWARNQHPSGAVAHARSTDGGHSWSQVTFNPNVPEIFSQPNALRVTNPDGIIFANASQLLPFRGRGVLRMSTNDGASWQHNRVFNPRHYVYQCMTQLPDGSIGLLWEREMQGLFFSIIPMTWIMQGYAL", "values": [{"measurement": "glycan array binding signal (z-score)", "setting": "[1]", "result": 0.72}, {"measurement": "glycan array binding signal (z-score)", "setting": "[2]", "result": -0.163}, {"measurement": "glycan array binding signal (z-score)", "setting": "[3]", "result": -0.694}, {"measurement": "glycan array binding signal (z-score)", "setting": "[4]", "result": -0.062}, {"measurement": "glycan array binding signal (z-score)", "setting": "[5]", "result": -0.391}, {"measurement": "glycan array binding signal (z-score)", "setting": "[6]", "result": -0.71}, {"measurement": "glycan array binding signal (z-score)", "setting": "[7]", "result": 0.165}, {"measurement": "glycan array binding signal (z-score)", "setting": "[8]", "result": -0.286}, {"measurement": "glycan array binding signal (z-score)", "setting": "[9]", "result": 0.306}, {"measurement": "glycan array binding signal (z-score)", "setting": "[10]", "result": -0.425}, {"measurement": "glycan array binding signal (z-score)", "setting": "[11]", "result": 0.211}, {"measurement": "glycan array binding signal (z-score)", "setting": "[12]", "result": -0.909}, {"measurement": "glycan array binding signal (z-score)", "setting": "[13]", "result": 0.007}, {"measurement": "glycan array binding signal (z-score)", "setting": "[14]", "result": -1.09}, {"measurement": "glycan array binding signal (z-score)", "setting": "[15]", "result": 0.292}, {"measurement": "glycan array binding signal (z-score)", "setting": "[16]", "result": -0.975}, {"measurement": "glycan array binding signal (z-score)", "setting": "[17]", "result": 2.38}, {"measurement": "glycan array binding signal (z-score)", "setting": "[18]", "result": -0.346}, {"measurement": "glycan array binding signal (z-score)", "setting": "[19]", "result": -0.223}, {"measurement": "glycan array binding signal (z-score)", "setting": "[20]", "result": 0.383}, {"measurement": "glycan array binding signal (z-score)", "setting": "[21]", "result": 0.688}, {"measurement": "glycan array binding signal (z-score)", "setting": "[22]", "result": -0.111}, {"measurement": "glycan array binding signal (z-score)", "setting": "[23]", "result": -0.508}, {"measurement": "glycan array binding signal (z-score)", "setting": "[24]", "result": 1.08}, {"measurement": "glycan array binding signal (z-score)", "setting": "[25]", "result": -0.371}, {"measurement": "glycan array binding signal (z-score)", "setting": "[26]", "result": -0.027}, {"measurement": "glycan array binding signal (z-score)", "setting": "[27]", "result": -0.015}, {"measurement": "glycan array binding signal (z-score)", "setting": "[28]", "result": 0.334}, {"measurement": "glycan array binding signal (z-score)", "setting": "[29]", "result": 1.21}, {"measurement": "glycan array binding signal (z-score)", "setting": "[30]", "result": -1}]}]}
